Test results as given in the supplement of paper PMC11417369.
± gives the standard deviation of the averaged measurements. This is one part of the list.

System: PfAP2-LT AP2 domain (GST-tagged)
Assay: gcPBM binding intensity (ln(normalized median fluorescence intensity)); higher = stronger DNA binding
How it was run: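 After 1 h on an Agilent 4 × 180k array of primer-extended double-stranded 36-bp intergenic genomic probes and negative controls, bound GST-tagged P. falciparum DNA-binding domains were detected with Alexa488 anti-GST antibody and scanned at 488 nm. The domains had been expressed in E. coli, and binding took place in 1× PBS with 1% milk, 0.2 mg/ml BSA, 0.5% salmon testes DNA and 0.03% Triton X-100. Binding intensity is the highest Masliner-normalised natural-log median intensity across replicate spots of either probe orientation.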

Sequence | gcPBM binding intensity (ln)
ACCCATATTCTTTTTACACACTTGAATAAAAAATAT [CACACA_site4797] | 8.73 ± 0.38
GAGATATAAAAGTGTACACATATTGTTATCCATATT [CACACA_site5441] | 8.9 ± 0.46
TATATACAAATATGTACACACATTACAGATGTACAT [CACACA_site6586] | 9.15 ± 0.4
TAGAAAAAATAAAATAGTACACATCCAAAAAAAAAA [XGTACX_site7829] | 8.81 ± 0.44
CCAAACAAAAAAAAAAGTACATAAAACACCTATTTG [XGTACX_site5645] | 8.81 ± 0.47
ATAATTAGGGTGTATTTCATTTCATTTCATTTTATT [CACACA_negctrl_site1418] | 9.04 ± 0.4
AATATATAAATATATACACACAAAAACATATATATA [CACACA_site1318] | 9.14 ± 0.48
AACGTATTATTTATCTGTACAAAATAATAACGTATT [XGTACX_site813] | 8.73 ± 0.35
TTTTGTTTTTTCAATGTGCACTTAGGATGTTTTTAT [GTGCAC_site9565] | 8.99 ± 0.43
TAAATAAAAATACAGTGTACTTTTTTCTATTTAAAA [XGTACX_site3288] | 8.22 ± 0.47
ATCCAAATTAATAATAGTACTTTTAAGTCCTATGTA [XGTACX_site2452] | 8.65 ± 0.38
CAAACAAATTGTGAAACACACATATATATATATATA [CACACA_site2001] | 9.81 ± 0.057
ATAATAAATGTCTTCAATGAAGTGGAAATGCTGTTA [TGCATGCA_negctrl_site238] | 8.64 ± 0.45
ATATATACATAGAATTGTACATAATTTATGTTCATT [XGTACX_site7426] | 8.71 ± 0.39
ATCATGGAAAAAACAAATGGGCTACATTACCTTTTG [GTGCAC_negctrl_site487] | 8.68 ± 0.45
TTGGAGTTCATATGTGGTACACATTTAAATATATTT [XGTACX_site5582] | 8.72 ± 0.43
GATATAAACGTATATGTACATATATATATATATATA [GTGCAC_negctrl_site186] | 10.1 ± 0.38
GTGTATCAATATGTAGGTACGTAAATATAGATAATA [XGTACX_site5526] | 8.97 ± 0.47
AAAATAAAATTTACTTGTACTAAAGGGATACGCGCA [XGTACX_site1453] | 8.65 ± 0.48
TAAATATTATTTATATGTACTGATATATTAAATAAA [XGTACX_site3446] | 8.23 ± 0.41
AATTAATATTTAAATTGTACATGAACATTTTAATGT [XGTACX_site462] | 8.53 ± 0.46
AATATAAATTTATATTGTACATATTTTATTATATGT [XGTACX_site905] | 8.74 ± 0.4

Sequence | gcPBM binding intensity (ln)
GTCACAAAATAAATTAAACACACAACATCATATATG [CACACA_site8182] | 9.2 ± 0.35
AAATAAAATCATAATGTGCGCATATAAATTTGTAGG [GTGCAC_site9662] | 9.14 ± 0.39
ATATATATATATGAAAGTACACATCTATTTTTTCTT [XGTACX_site6059] | 9.13 ± 0.35
AAGGTAGATATATTTAGTACGTAATTTTTTTTTTTT [XGTACX_site7288] | 8.62 ± 0.5
TAATATAATATATAGGTGCAATATTAACAAAAATTT | 8.72 ± 0.47
ATTAATATGAATAAATGTACAAATGAATGATTACAT [XGTACX_site6044] | 8.85 ± 0.47
ATAATGTGTTAGGCGTGTACACAATTGTATGGTTTA [XGTACX_site2377] | 9.12 ± 0.33
GACATAAGATAATTACACATTGTTTCCTCAATAATA [CACACA_negctrl_site1616] | 8.61 ± 0.5
TTTCTTTAATATATAGTGCATGTAAATTTTACAATA [GTGCAC_site9679] | 8.4 ± 0.39
ATTTTAACGAATATATGTACATAAAAAAAAAAAAGA [XGTACX_site8750] | 8.73 ± 0.57
TAAGTAAAAAATTAAAAAGATTACAGGGGGGGAAGG [XGTACX_negctrl_site491] | 9.825 ± 0.064
AAAATAAGGACTGTTGTGCACTGGATTTGTGGTTAC [GTGCAC_site9830] | 9.04 ± 0.39
AAAAAAAAAAACAGTTGTACATTTATTTATATATTA [XGTACX_site217] | 8.46 ± 0.4
ATAACAAAATAAAACACACACACAAATGTACAGATA [CACACA_site5358] | 9.82 ± 0.33
ATTTTTGTGTTTACACGTACGTGTAAATTATTTTTC [XGTACX_site1869] | 9 ± 0.44
TATTCATGTTTAAAAAGTACATATTATGGTAACATT [XGTACX_site4533] | 8.62 ± 0.37
AGAAGCATACATCAAGCACACACACCCACACCCACA [CACACA_site8014] | 10 ± 0.37
TCCTTTTCTTAATTTAAAAAATATAAAAAAAACGAA [CACACA_negctrl_site1821] | 7.94 ± 0.34
ACACGTTTATATAAAAAATTAAAATTTTTCTTATTT [CACACA_negctrl_site1523] | 8.4 ± 0.53
AATACATACAGACACACACACACATATAAATAAATA [CACACA_site7642] | 10.1 ± 0.38
GCTCATTGAAGTTATACACACCAAATATGTAAATAT [CACACA_site7217] | 8.95 ± 0.34
AAAAGGGATAAATGTGCGCACATGTTATATATATAT [GTGCAC_site9534] | 9.39 ± 0.43
